Measured values published in the supplement of paper PMC8728848.
Some of the results follow.

Experiments:
Test in all cases: glycan array binding signal (z-score within array); higher = stronger binding
Conditions in all cases: glycan notation: IUPAC condensed, linker removed
Neu5Ac(a2-6)Gal(b1-4)Glc = biological target: Neu5Ac(a2-6)Gal(b1-4)Glc
Summary of the method: (§1)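 Glycan array binding is given as a within-array Z-score, which can be read as non-binding when negative. The arrays, 3228 of them, came from the Consortium for Functional Glycomics database and were retained only where the protein sequence was available. Z-scores were averaged across arrays of the same protein sequence at different concentrations or buffers and across linkers.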

[1] = biological target: Neu5Ac(a2-6)Gal(b1-4)GlcNAc
Summary of the method: as §1

[2] = biological target: Neu5Ac(a2-6)Gal(b1-4)GlcNAc(b1-2)Man(a1-3)Man(b1-4)GlcNAc(b1-4)GlcNAc
Summary of the method: as §1

[3] = biological target: Neu5Ac(a2-6)Gal(b1-4)GlcNAc(b1-2)Man(a1-3)[Gal(b1-4)GlcNAc(b1-2)Man(a1-6)]Man(b1-4)GlcNAc(b1-4)GlcNAc
Summary of the method: as §1

[4] = biological target: Neu5Ac(a2-6)Gal(b1-4)GlcNAc(b1-2)Man(a1-3)[GlcNAc(b1-2)Man(a1-6)]Man(b1-4)GlcNAc(b1-4)GlcNAc
Summary of the method: as §1

[5] = biological target: Neu5Ac(a2-6)Gal(b1-4)GlcNAc(b1-2)Man(a1-3)[GlcNAc(b1-2)Man(b1-4)GlcNAc(b1-2)Man(a1-6)]Man(b1-4)GlcNAc(b1-4)GlcNAc
Summary of the method: as §1

[6] = biological target: Neu5Ac(a2-6)Gal(b1-4)GlcNAc(b1-2)Man(a1-3)[Man(a1-6)]Man(b1-4)GlcNAc(b1-4)GlcNAc
Summary of the method: as §1

[7] = biological target: Neu5Ac(a2-6)Gal(b1-4)GlcNAc(b1-2)Man(a1-3)[Neu5Ac(a2-6)Gal(b1-4)GlcNAc(b1-2)Man(a1-6)]Man(b1-4)GlcNAc(b1-4)GlcNAc
Summary of the method: as §1

[8] = biological target: Neu5Ac(a2-6)Gal(b1-4)GlcNAc(b1-2)Man(a1-6)Man(b1-4)GlcNAc(b1-4)GlcNAc
Summary of the method: as §1

[9] = biological target: Neu5Ac(a2-6)Gal(b1-4)GlcNAc(b1-2)Man(a1-6)[Gal(b1-4)GlcNAc(b1-2)Man(a1-3)]Man(b1-4)GlcNAc(b1-4)GlcNAc
Summary of the method: as §1

[10] = biological target: Neu5Ac(a2-6)Gal(b1-4)GlcNAc(b1-2)Man(a1-6)[GlcNAc(b1-2)Man(a1-3)]Man(b1-4)GlcNAc(b1-4)GlcNAc
Summary of the method: as §1

[11] = biological target: Neu5Ac(a2-6)Gal(b1-4)GlcNAc(b1-2)Man(a1-6)[Man(a1-3)]Man(b1-4)GlcNAc(b1-4)GlcNAc
Summary of the method: as §1

[12] = biological target: Neu5Ac(a2-6)Gal(b1-4)GlcNAc(b1-3)Gal(b1-3)GlcNAc
Summary of the method: as §1

[13] = biological target: Neu5Ac(a2-6)Gal(b1-4)GlcNAc(b1-3)Gal(b1-4)GlcNAc
Summary of the method: as §1

[14] = biological target: Neu5Ac(a2-6)Gal(b1-4)GlcNAc(b1-3)Gal(b1-4)GlcNAc(b1-3)Gal(b1-4)GlcNAc
Summary of the method: as §1

[15] = biological target: Neu5Ac(a2-6)Gal(b1-4)GlcNAc(b1-3)Gal(b1-4)[Fuc(a1-3)]GlcNAc(b1-3)Gal(b1-4)[Fuc(a1-3)]GlcNAc
Summary of the method: as §1

[16] = biological target: Neu5Ac(a2-6)Gal(b1-4)GlcNAc(b1-3)GalNAc
Summary of the method: as §1

[17] = biological target: Neu5Ac(a2-6)Gal(b1-4)GlcNAc6S
Summary of the method: as §1

Neu5Ac(a2-6)GalNAc = biological target: Neu5Ac(a2-6)GalNAc
Summary of the method: as §1

[18] = biological target: Neu5Ac(a2-6)GalNAc(b1-4)GlcNAc
Summary of the method: as §1

[19] = biological target: Neu5Ac(a2-6)GlcNAc(b1-4)GlcNAc
Summary of the method: as §1

[20] = biological target: Neu5Ac(a2-6)GlcNAc(b1-4)GlcNAc(b1-4)GlcNAc
Summary of the method: as §1

Neu5Ac(a2-8)Neu5Ac = biological target: Neu5Ac(a2-8)Neu5Ac
Summary of the method: as §1

[21] = biological target: Neu5Ac(a2-8)Neu5Ac(a2-3)Gal(b1-4)Glc
Summary of the method: as §1

[22] = biological target: Neu5Ac(a2-8)Neu5Ac(a2-3)[GalNAc(b1-4)]Gal(b1-4)Glc
Summary of the method: as §1

[23] = biological target: Neu5Ac(a2-8)Neu5Ac(a2-8)Neu5Ac
Summary of the method: as §1

[24] = biological target: Neu5Ac(a2-8)Neu5Ac(a2-8)Neu5Ac(a2-3)Gal(b1-4)Glc
Summary of the method: as §1

[25] = biological target: Neu5Ac(a2-8)Neu5Ac(a2-8)Neu5Ac(a2-3)[GalNAc(b1-4)]Gal(b1-4)Glc
Summary of the method: as §1

[26] = biological target: Neu5Ac(a2-8)Neu5Ac(a2-8)Neu5Ac(a2-8)Neu5Ac(a2-3)[GalNAc(b1-4)]Gal(b1-4)Glc
Summary of the method: as §1

[27] = biological target: Neu5Ac(b2-6)Gal(b1-4)GlcNAc
Summary of the method: as §1

Neu5Ac(b2-6)GalNAc = biological target: Neu5Ac(b2-6)GalNAc
Summary of the method: as §1

[28] = biological target: Neu5Ac9Ac(a2-3)Gal(b1-3)GlcNAc
Summary of the method: as §1

[29] = biological target: Neu5Ac9Ac(a2-3)Gal(b1-4)GlcNAc
Summary of the method: as §1

[30] = biological target: Neu5Ac9Ac(a2-6)Gal(b1-4)GlcNAc
Summary of the method: as §1

[31] = biological target: Neu5Gc(a2-3)Gal(b1-3)GlcNAc
Summary of the method: as §1

[32] = biological target: Neu5Gc(a2-3)Gal(b1-3)[Fuc(a1-4)]GlcNAc
Summary of the method: as §1

Neu5Gc(a2-3)Gal(b1-4)Glc = biological target: Neu5Gc(a2-3)Gal(b1-4)Glc
Summary of the method: as §1

[33] = biological target: Neu5Gc(a2-3)Gal(b1-4)GlcNAc
Summary of the method: as §1

[34] = biological target: Neu5Gc(a2-3)Gal(b1-4)[Fuc(a1-3)]GlcNAc
Summary of the method: as §1

[35] = biological target: Neu5Gc(a2-6)Gal(b1-4)GlcNAc
Summary of the method: as §1

Neu5Gc(a2-6)GalNAc = biological target: Neu5Gc(a2-6)GalNAc
Summary of the method: as §1

[36] = biological target: Neu5Gc(b2-6)Gal(b1-4)GlcNAc
Summary of the method: as §1

B1: Neuropilin-2 (Homo sapiens), O60462 (protein)
chain: MDMFPLTWVFLALYFSRHQVRGQPDPPCGGRLNSKDAGYITSPGYPQDYPSHQNCEWIVYAPEPNQKIVLNFNPHFEIEKHDCKYDFIEIRDGDSESADLLGKHCGNIAPPTIISSGSMLYIKFTSDYARQGAGFSLRYEIFKTGSEDCSKNFTSPNGTIESPGFPEKYPHNLDCTFTILAKPKMEIILQFLIFDLEHDPLQVGEGDCKYDWLDIWDGIPHVGPLIGKYCGTKTPSELRSSTGILSLTFHTDMAVAKDGFSARYYLVHQEPLENFQCNVPLGMESGRIANEQISASSTYSDGRWTPQQSRLHGDDNGWTPNLDSNKEYLQVDLRFLTMLTAIATQGAISRETQNGYYVKSYKLEVSTNGEDWMVYRHGKNHKVFQANNDATEVVLNKLHAPLLTRFVRIRPQTWHSGIALRLELFGCRVTDAPCSNMLGMLSGLIADSQISASSTQEYLWSPSAARLVSSRSGWFPRIPQAQPGEEWLQVDLGTPKTVKGVIIQGARGGDSITAVEARAFVRKFKVSYSLNGKDWEYIQDPRTQQPKLFEGNMHYDTPDIRRFDPIPAQYVRVYPERWSPAGIGMRLEVLGCDWTDSKPTVETLGPTVKSEETTTPYPTEEEATECGENCSFEDDKDLQLPSGFNCNFDFLEEPCGWMYDHAKWLRTTWASSSSPNDRTFPDDRNFLRLQSDSQREGQYARLISPPVHLPRSPVCMEFQYQATGGRGVALQVVREASQESKLLWVIREDQGGEWKHGRIILPSYDMEYQIVFEGVIGKGRSGEIAIDDIRISTDVPLENCMEPISAFAGENFKVDIPEIHEREGYEDEIDDEYEVDWSNSSSATSGSGAPSTDKEKSWLYTLDPILITIIAMSSLGVLLGATCAGLLLYCTCSYSGLSSRSCTTLENYNFELYDGLKHKVKMNHQKCCSEA
Neu5Ac(a2-6)Gal(b1-4)Glc
  glycan array binding signal (z-score): 0.038
[1]
  glycan array binding signal (z-score): -0.43
[2]
  glycan array binding signal (z-score): -0.201
[3]
  glycan array binding signal (z-score): -0.507
[4]
  glycan array binding signal (z-score): -0.609
[5]
  glycan array binding signal (z-score): -0.465
[6]
  glycan array binding signal (z-score): -0.229
[7]
  glycan array binding signal (z-score): -0.493
[8]
  glycan array binding signal (z-score): -0.583
[9]
  glycan array binding signal (z-score): -0.053
[10]
  glycan array binding signal (z-score): -0.143
[11]
  glycan array binding signal (z-score): -0.625
[12]
  glycan array binding signal (z-score): -0.622
[13]
  glycan array binding signal (z-score): 0.105
[14]
  glycan array binding signal (z-score): 0.013
[15]
  glycan array binding signal (z-score): -0.191
[16]
  glycan array binding signal (z-score): -0.489
[17]
  glycan array binding signal (z-score): -0.418
Neu5Ac(a2-6)GalNAc
  glycan array binding signal (z-score): -0.647
[18]
  glycan array binding signal (z-score): -0.685
[19]
  glycan array binding signal (z-score): 0.338
[20]
  glycan array binding signal (z-score): -0.658
Neu5Ac(a2-8)Neu5Ac
  glycan array binding signal (z-score): 0.098
[21]
  glycan array binding signal (z-score): -0.423
[22]
  glycan array binding signal (z-score): -0.46
[23]
  glycan array binding signal (z-score): -0.338
[24]
  glycan array binding signal (z-score): -0.788
[25]
  glycan array binding signal (z-score): -0.568
[26]
  glycan array binding signal (z-score): 0.003
[27]
  glycan array binding signal (z-score): -0.691
Neu5Ac(b2-6)GalNAc
  glycan array binding signal (z-score): -0.561
[28]
  glycan array binding signal (z-score): -0.436
[29]
  glycan array binding signal (z-score): -0.232
[30]
  glycan array binding signal (z-score): 0.76
[31]
  glycan array binding signal (z-score): 0.011
[32]
  glycan array binding signal (z-score): -0.777
Neu5Gc(a2-3)Gal(b1-4)Glc
  glycan array binding signal (z-score): 0.728
[33]
  glycan array binding signal (z-score): -0.202
[34]
  glycan array binding signal (z-score): 0.171
[35]
  glycan array binding signal (z-score): 0.3
Neu5Gc(a2-6)GalNAc
  glycan array binding signal (z-score): -0.378
[36]
  glycan array binding signal (z-score): -0.111
